PMC9911399, “Two distinct binding modes provide the RNA-binding protein RbFox with extraordinary sequence specificity”
Numbering of substitutions follows the chain as printed; changes in the protein carry UniProt numbers. The list shows a part of the results.

T1: RBFOX1 RRM (Homo sapiens, UniProt Q9NWB1 109-208)
T1 sequence: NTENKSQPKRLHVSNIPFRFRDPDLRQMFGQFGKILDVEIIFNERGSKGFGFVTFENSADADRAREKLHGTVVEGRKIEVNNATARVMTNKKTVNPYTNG

B1: AAUGUCC (DNA:RNA)
RNA: GGGAGACCGGAAUUCAGAUUGUCCAAUGUCCUUAAAUCCCGUCGUAGCCACCA
DNA 1: CAATCTGAATTCCGGTCTCCC
DNA 2: TGGTGGCTACGACGGGATT
B2: CGCCCCG (DNA:RNA)
RNA: B1 RNA with A25C, A26G, U27C, G28C, U29C, C31G
DNA 1: CAATCTGAATTCCGGTCTCCC
DNA 2: TGGTGGCTACGACGGGATT
B3: GUAAAGG (DNA:RNA)
RNA: GGGAGACCGGAAUUCAGAUUGUCCGUAAAGGUUAAAUCCCGUCGUAGCCACCA
DNA 1: CAATCTGAATTCCGGTCTCCC
DNA 2: TGGTGGCTACGACGGGATT
B4: CGCGGCC (DNA:RNA)
RNA: B1 RNA with A25C, A26G, U27C, U29G
DNA 1: CAATCTGAATTCCGGTCTCCC
DNA 2: TGGTGGCTACGACGGGATT
B5: GCACCUU (DNA:RNA)
RNA: B3 RNA with U26C, A28C, A29C, G30U, G31U
DNA 1: CAATCTGAATTCCGGTCTCCC
DNA 2: TGGTGGCTACGACGGGATT
B6: AGGACGU (DNA:RNA)
RNA: B3 RNA with G25A, U26G, A27G, A29C, G31U
DNA 1: CAATCTGAATTCCGGTCTCCC
DNA 2: TGGTGGCTACGACGGGATT
B7: GGGGCCC (DNA:RNA)
RNA: B1 RNA with A25G, A26G, U27G, U29C
DNA 1: CAATCTGAATTCCGGTCTCCC
DNA 2: TGGTGGCTACGACGGGATT
B8: GUCCUUG (DNA:RNA)
RNA: B3 RNA with A27C, A28C, A29U, G30U
DNA 1: CAATCTGAATTCCGGTCTCCC
DNA 2: TGGTGGCTACGACGGGATT
B9: GCGUUGA (DNA:RNA)
RNA: B3 RNA with U26C, A27G, A28U, A29U, G31A
DNA 1: CAATCTGAATTCCGGTCTCCC
DNA 2: TGGTGGCTACGACGGGATT
B10: CGGUCGU (DNA:RNA)
RNA: B3 RNA with G25C, U26G, A27G, A28U, A29C, G31U
DNA 1: CAATCTGAATTCCGGTCTCCC
DNA 2: TGGTGGCTACGACGGGATT
B11: UAAAUUU (DNA:RNA)
RNA: B1 RNA with A25U, U27A, G28A, C30U, C31U
DNA 1: CAATCTGAATTCCGGTCTCCC
DNA 2: TGGTGGCTACGACGGGATT
B12: CGGUUAG (DNA:RNA)
RNA: B1 RNA with A25C, A26G, U27G, G28U, C30A, C31G
DNA 1: CAATCTGAATTCCGGTCTCCC
DNA 2: TGGTGGCTACGACGGGATT
B13: AAGCGUC (DNA:RNA)
RNA: B1 RNA with U27G, G28C, U29G, C30U
DNA 1: CAATCTGAATTCCGGTCTCCC
DNA 2: TGGTGGCTACGACGGGATT
B14: CCGAGAC (DNA:RNA)
RNA: B1 RNA with A25C, A26C, U27G, G28A, U29G, C30A
DNA 1: CAATCTGAATTCCGGTCTCCC
DNA 2: TGGTGGCTACGACGGGATT
B15: GAAACCG (DNA:RNA)
RNA: B3 RNA with U26A, A29C, G30C
DNA 1: CAATCTGAATTCCGGTCTCCC
DNA 2: TGGTGGCTACGACGGGATT
B16: UAGACAC (DNA:RNA)
RNA: B1 RNA with A25U, U27G, G28A, U29C, C30A
DNA 1: CAATCTGAATTCCGGTCTCCC
DNA 2: TGGTGGCTACGACGGGATT
B17: UAGCGCC (DNA:RNA)
RNA: B1 RNA with A25U, U27G, G28C, U29G
DNA 1: CAATCTGAATTCCGGTCTCCC
DNA 2: TGGTGGCTACGACGGGATT
B18: ACAGGUU (DNA:RNA)
RNA: B1 RNA with A26C, U27A, U29G, C30U, C31U
DNA 1: CAATCTGAATTCCGGTCTCCC
DNA 2: TGGTGGCTACGACGGGATT
B19: UUGGUGG (DNA:RNA)
RNA: B3 RNA with G25U, A27G, A28G, A29U
DNA 1: CAATCTGAATTCCGGTCTCCC
DNA 2: TGGTGGCTACGACGGGATT
B20: GAGGGCU (DNA:RNA)
RNA: B1 RNA with A25G, U27G, U29G, C31U
DNA 1: CAATCTGAATTCCGGTCTCCC
DNA 2: TGGTGGCTACGACGGGATT

Target: T1, RBFOX1 RRM
Assay: EMSA; HiTS-Eq, 1 nM pool, 10 min; buffer printed only for the single-RNA assays: 10 mM Tris pH 7.5, 150 mM NaCl, 3.4 mM EDTA, 0.001% NP-40, 30 C
Conditions: tags: His6 N-terminal (pET28a); label: 5' 32P
Summary of the method: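 Purified wild-type or mutant RbFox RRM at increasing concentrations was equilibrated with 1 nM of 5′-radiolabelled RNA carrying 7 randomized nucleotides for 10 min in 50 µL. Unbound RNA was separated by 8% native PAGE and sequenced. Relative association constants came from read-count changes of each RNA species compared with the control reaction, normalised to the cognate motif.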

Which binding signal does the source give for B1 here?
The binding signal was 0.00604 KA relative to UGCAUGU.

Which binding signal does the source give for B2 here?
Its binding signal is 0.007 KA relative to UGCAUGU.

Which binding signal does the source give for B3 here?
Its binding signal is 0.00572 KA relative to UGCAUGU.

With B4 as the binder, how does the binding signal read?
Its binding signal is 0.016 KA relative to UGCAUGU.

With B5 as the binder, how does the binding signal read?
Its binding signal is 0.00757 KA relative to UGCAUGU.

Which binding signal does the source give for B6 here?
The binding signal was 0.0265 KA relative to UGCAUGU.

For B7, which binding signal is on record?
The binding signal was 0.0409 KA relative to UGCAUGU.

With B8 as the binder, how does the binding signal read?
The binding signal was 0.0114 KA relative to UGCAUGU.

How did the binding signal turn out when B9 was run?
The binding signal was 0.0205 KA relative to UGCAUGU.

With B10 as the binder, how does the binding signal read?
Its binding signal is 0.0131 KA relative to UGCAUGU.

Which binding signal does the source give for B11 here?
The binding signal was 0.00806 KA relative to UGCAUGU.

Which binding signal does the source give for B12 here?
The binding signal was 0.0127 KA relative to UGCAUGU.

For B13, which binding signal is on record?
The binding signal was 0.00965 KA relative to UGCAUGU.

B14 was tested. Which binding signal did it give?
The binding signal was 0.011 KA relative to UGCAUGU.

Which binding signal does the source give for B15 here?
The binding signal was 0.00268 KA relative to UGCAUGU.

With B16 as the binder, how does the binding signal read?
The binding signal was 0.00295 KA relative to UGCAUGU.

How did the binding signal turn out when B17 was run?
The binding signal was 0.00963 KA relative to UGCAUGU.

B18 was tested. Which binding signal did it give?
The binding signal was 0.00665 KA relative to UGCAUGU.

Which binding signal does the source give for B19 here?
The binding signal was 0.0195 KA relative to UGCAUGU.

How did the binding signal turn out when B20 was run?
The binding signal was 0.0208 KA relative to UGCAUGU.
